Laboratory results published in PMC12711579.
These are yes or no findings as the source states them, for the method shown. Some binding calls cover weakened binding; strength is not graded here. Each block holds one binder with its values, some of them ahead of it.

Columns and labels:
Assay in all cases: two-hybrid; Clontech Matchmaker Gold; pGADT7 (AD) and pGBKT7 (BD) fusions co-transformed into Y2H Gold yeast; serial dilutions on DDO, TDO (−His/−Leu/−Trp, screens for weak interactions) and QDO (−His/−Ade/−Leu/−Trp, screens for strong interactions); 3–5 days at 30 °C
[1] = target: PCH2 (A. thaliana) (UniProt Q8H1F9)
[2] = target: ASY3 (A. thaliana) (UniProt Q0WR66)
[3] = target: ZYP1a (A. thaliana) (UniProt Q9LME2)
[4] = target: T1, ZYP1b (A. thaliana) (UniProt P61430)
T1 sequence: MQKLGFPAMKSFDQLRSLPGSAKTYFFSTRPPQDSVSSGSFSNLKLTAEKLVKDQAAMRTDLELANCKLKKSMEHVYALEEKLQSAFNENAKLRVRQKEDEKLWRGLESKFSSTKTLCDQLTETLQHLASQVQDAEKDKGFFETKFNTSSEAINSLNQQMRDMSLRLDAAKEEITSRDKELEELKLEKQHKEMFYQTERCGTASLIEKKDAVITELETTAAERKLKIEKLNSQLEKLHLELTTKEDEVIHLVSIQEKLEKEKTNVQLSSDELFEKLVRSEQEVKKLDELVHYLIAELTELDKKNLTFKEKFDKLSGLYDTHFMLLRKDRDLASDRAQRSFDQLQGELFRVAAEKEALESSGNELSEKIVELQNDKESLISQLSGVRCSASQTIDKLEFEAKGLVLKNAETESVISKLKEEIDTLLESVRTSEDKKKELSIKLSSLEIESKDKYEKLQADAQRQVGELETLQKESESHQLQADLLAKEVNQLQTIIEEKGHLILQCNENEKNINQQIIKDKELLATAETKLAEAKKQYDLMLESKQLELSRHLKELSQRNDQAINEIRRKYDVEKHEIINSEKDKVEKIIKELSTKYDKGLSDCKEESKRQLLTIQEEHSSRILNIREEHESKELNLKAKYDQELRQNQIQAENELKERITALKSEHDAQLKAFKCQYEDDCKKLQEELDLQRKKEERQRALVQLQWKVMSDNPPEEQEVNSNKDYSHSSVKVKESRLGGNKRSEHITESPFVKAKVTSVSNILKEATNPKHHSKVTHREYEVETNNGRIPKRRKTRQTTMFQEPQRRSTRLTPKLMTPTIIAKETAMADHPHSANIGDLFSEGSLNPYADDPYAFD

[5] = target: T2, PCH2 (A. thaliana), Q8H1F9; details: remark: other sources report otherwise
T2 chain: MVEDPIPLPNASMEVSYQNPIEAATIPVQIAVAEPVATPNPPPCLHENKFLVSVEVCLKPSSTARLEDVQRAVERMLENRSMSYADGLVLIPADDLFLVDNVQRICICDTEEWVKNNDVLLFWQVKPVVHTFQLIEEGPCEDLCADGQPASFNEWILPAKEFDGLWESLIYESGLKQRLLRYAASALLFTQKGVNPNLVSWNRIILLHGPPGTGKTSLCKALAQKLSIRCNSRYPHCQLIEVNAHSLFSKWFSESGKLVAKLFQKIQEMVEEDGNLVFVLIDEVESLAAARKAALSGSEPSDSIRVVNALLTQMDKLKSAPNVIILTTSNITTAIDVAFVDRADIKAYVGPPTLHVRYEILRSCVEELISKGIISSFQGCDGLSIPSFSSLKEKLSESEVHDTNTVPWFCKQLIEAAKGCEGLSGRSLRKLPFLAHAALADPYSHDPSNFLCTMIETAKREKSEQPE

B2: ASY3 (protein, UniProt Q0WR66 1-793)
chain: MSDYRSFGSNYHPSSQSRKISIGVMADSQPKRNLVPDKDDGDVIARVEKLKSATVTELQANKKEKSDLAAKQRNSAQVTGHVTSPWRSPRSSHRKLGTLESVLCKQTSSLSGSKGLNKGLNGAHQTPARESFQNCPISSPQHSLGELNGGRNDRVMDRSPERMEEPPSAVLQQKVASQREKMDKPGKETNGTTDVLRSKLWEILGKASPANNEDVNSETPEVEKTNFKLSQDKGSNDDPLIKPRHNSDSIETDSESPENATRRPVTRSLLQRRVGAKGVQKKTKAGANLGRKCTEQVNSVFSFEEGLRGKIGTAVNSSVMPKKQRGRRKNTVVKCRKAHSRKKDEADWSRKEASKSNTPPRSESTETGKRSSSSDKKGSSHDLHPQSKARKQKPDISTREGDFHPSPEAEAAALPEMSQGLSKNGDKHERPSNIFREKSVEPENEFQSPTFGYKAPISSPSPCCSPEASPLQPRNISPTLDETETPIFSFGTKKTSQGTTGQASDTEKRLPDFLEKKRDYSFRRESSPEPNEDLVLSDPSSDERDSDGSREDSPVLGHNISPEERETANWTNERSMLGPSSVKRNSNLKGIGRVVLSPPSPLSKGIDKTDSFQHCSEMDEDEDEGLGRAVALFAMALQNFERKLKSAAEKKSSEIIASVSEEIHLELENIKSHIITEAGKTSNLAKTKRKHAETRLQEQEEKMRMIHEKFKDDVSHHLEDFKSTIEELEANQSELKGSIKKQRTSHQKLIAHFEGGIETKLDDATKRIDSVNKSARGKMLQLKMIVAECLRDD
binding [2]: binds

B5: ZYP1b (protein, UniProt P61430 1-856)
chain: T1 sequence
binding [4]: binds weakly

Continued, values first:

binding [1]: binds
B1: PCH2 (protein, UniProt Q8H1F9 1-467)
chain: T2 chain

binding [3]: binds | binding [4]: no binding
B3: ZYP1a (protein, UniProt Q9LME2 1-871)
chain: MQKLGFPAMKSLDKPRSLSGSANMYSFSNRKPPDSVSSGSFSNLKLTAEKLVKDQAAMRTDLELANCKLKKSMEHVYALEEKLQNAFNENAKLRVRKKEDEKLWRGLESKFSSTKTLCDQLTETLQHLASQVQDAEKDKGFFETKFSTSSEAIDSLNQQMRDMSLRLDAAKEEITSRDKELEELKLEKQQKEMFYQTERCGTASLIEKKDAVITKLEASAAERKLNIENLNSQLEKVHLELTTKEDEVKDLVSIQEKLEKEKTSVQLSADNCFEKLVSSEQEVKKLDELVQYLVAELTELDKKNLTFKEKFDKLSGLYDTHIMLLQKDRDLALDRAQRSFDNLQGELFRVAATKEALESAGNELNEKIVELQNDKESLISQLSGLRCSTSQTIDKLESEAKGLVSKHADAESAISQLKEEMETLLESVKTSEDKKQELSLKLSSLEMESKEKCEKLQADAQRQVEELETLQKESESHQLQADLLAKEVNQLQTVIEEKGHVILQCNENEKQLNQQIIKDKELLATAETKLAEAKKQYDLMLESKQLELSRHLKELSQRNDQAINEIRRKYDVEKHEIINSEKDKVEKIIKDLSNKFDKELSDCKEESKRQLLTIQEEHSSLILSLREEHESKELNLKAKYDQELRQSQIQAENELKERITALKSEHDAQLKAFKCQYEDDCKKLQEELDLQRKKEERQRALVQLQWKVMSDNPPEEQEVNSNKNYSISKDSRLGGSKRSEHIRVRSDNDNVQDSPFVKAKETPVSKILKKAQNVNAGSVLSIPNPKHHSKVTHREYEVETNNGRVTKRRKTRNTTMFEEPQRRRTRATPKLTPQSIAKGTGMTSHARSANIGDLFSEGSLNPYADDPYAFD

binding [5]: binds
B4: ZYP1b, P61430 1-856 (protein)
chain: T1 sequence
